“And” between values parts separate entries of the source, which are not always exact repeats. Equal values may be shown once. In all, about 420,000 compounds went through this assay and about 64,000 (15%) were called active. This list was built around the results that the source calls inconclusive (neither active nor inactive); the mix of calls is not that of the screen. Calls follow the shape of the dose curve; as a rule, active = well fitted inhibition curve with a large enough effect; inconclusive = small, poorly fitted or top-dose-only effect; inactive = flat fitted curve, though single readings scatter. Potencies of inconclusive entries are doubtful fits and often do not repeat.
assay: qHTS for Inhibitors of human tyrosyl-DNA phosphodiesterase 1 (TDP1): qHTS in cells in absence of CPT; conditions: DT40 Tdp1-/- hTDP1 cells, no CPT, ATP luminescence, 48 h; activity change, negative = growth inhibition: at 46.2 µM (top of the series) unless noted; also: nearly all actives have a fitted effect of over 55% in size
Summary of the method: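 Compound effects on proliferation are scored in DT40 Tdp1-/-;hTDP1 cells in the absence of CPT. ATP levels (CellTiter-Glo luminescence) are recorded after a ≥48 hr, 37 °C incubation.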
% is scaled to controls: 0 for no effect and ±100 for the full control effect; potency is read from the fitted curve at half-maximal effect; tags tell the direction and shape of the fitted curve.

Compound	Potency	activity change, negative = growth inhibition
O=C(OCc1cn([C@H]2C[C@H](c3ccc(Cl)cc3)N(Cc3cccs3)C[C@@H]2O)nn1)c1ccccc1	inconclusive: 29.1 µM [inhibitor, single point]	–
O=C(C1=C[C@H](c2ccc3c(c2)OCO3)C[C@H](OCc2ccc(CO)cc2)O1)N1CCN(Cc2ccc3c(c2)OCO3)CC1	inconclusive: 25.9 µM [inhibitor, single point]	–
O=C(CCN1C(=O)/C(=C\c2ccccc2)SC1=S)Nc1ccc(C(=O)O)cc1	inactive	–
COc1ccc(N(Cc2ccccc2)C(=O)CSc2nnc(Cn3nnc4ccccc43)o2)cc1	active: 23.1 µM	–
Cc1cc(NCCOCCO)n2c(nc3ccccc32)c1C#N	–	inconclusive: -39% [inhibitor]
NS(=O)(=O)c1ccc(CCNC(=O)COC(=O)CC(c2ccccc2)c2ccccc2)cc1	inconclusive: 29.1 µM [inhibitor, single point]	–
CC(C)C(=O)N1CCN(c2ccc(NC(=O)c3ccco3)cc2Cl)CC1	inconclusive: 25.9 µM [inhibitor, single point]	–
COc1ccccc1NC(=O)/C=C/c1ccc(OC)c(S(=O)(=O)N2CCOCC2)c1	inactive	–
CN1CCCC(C(=O)C(C#N)c2ccccc2)C1 (configuration not stated)	inactive	–
Cc1ccc(-n2cc(CNCCc3ncc(C)[nH]3)c(-c3ccc(F)cc3)n2)cc1	inconclusive: 29.1 µM [inhibitor, single point]	–
Cc1ccc(-c2ccccc2NC(=O)CS(=O)CC(=O)Nc2ccc(C)c(Cl)c2)o1 (configuration not stated)	inconclusive: 13 µM [inhibitor, partial curve]	–
CC(=O)c1ccc(NC(=O)C2CCN(S(=O)(=O)c3cccs3)CC2)cc1	inconclusive: 18.4 µM [inhibitor, single point]	–
Cc1ccc(-n2c(=O)c3c(c4cc(C)ccc4n3C)n(CC(=O)c3ccc(Cl)cc3)c2=O)cc1	inactive	–
Cc1ccc(C(=O)NC(=S)Nc2cc(-c3nc4ccccc4s3)ccc2C)cc1	inconclusive: 25.9 µM [inhibitor, single point]	–
O=C(CN(C(=O)CSc1nc2ccccc2o1)c1ccccc1F)NC1CCCCC1	inactive	–
COC(=O)c1ccccc1NC(=O)c1nc(-c2ccc(Cl)cc2)n2c1CCCCC2	inconclusive: 29.1 µM [inhibitor, single point]	–
Cc1ccc(CSc2nnc(-c3ccco3)o2)cc1	inactive	–
CC(C)OCCCNCC(O)c1ccccc1 (configuration not stated)	inconclusive: 6.51 µM [inhibitor, single point]	–
CCCCCn1c(CNC(C)=O)nc2ccccc21	inconclusive: 5.17 µM [inhibitor, partial curve]	–
Cc1ccc(NC(=O)c2ccc(CN3CC(=O)N4CCCCC4C3=O)cc2)c(C)c1 (configuration not stated)	inconclusive: 16.4 µM [inhibitor, partial curve] and inconclusive: 20.6 µM [inhibitor, partial curve]	–
Nc1ncn(-c2ncc(C(F)(F)F)cc2Cl)n1	inactive	–
COCCn1c(-c2ccc(OC(F)(F)C(F)C(F)(F)F)cc2)nc2c1c(=O)[nH]c(=O)n2CC(C)C (configuration not stated)	inconclusive: 23.1 µM [inhibitor, single point]	–
COc1cc2[nH]c(=S)nc(NC3CCCCCC3)c2cc1OC	inconclusive: 29.1 µM [inhibitor, single point]	–

Compound	Potency	activity change, negative = growth inhibition
COc1ccc(OC)c(C2=NNC(=NCc3ccc4c(c3)OCO4)SC2)c1	inconclusive: 20.6 µM [inhibitor, single point]	–
C[C@H](NC(=O)OC(C)(C)C)C(=O)N/N=C/c1ccc2nccnc2c1	inconclusive: 20.6 µM [inhibitor, single point]	–
COC(=O)Cn1c(=NC(=O)c2cc(OC)cc(OC)c2)sc2cc(OC)ccc21	inconclusive: 29.1 µM [inhibitor, single point]	–
O=C1NC[C@H](Cc2ccccc2)N(CC2CCCCC2)C1=O	inactive	–
COc1cccc(Cc2nc3ccccc3nc2SCC(=O)N2CCCc3ccccc32)c1	inconclusive: 16.4 µM [inhibitor, single point]	–
CC(=O)Nc1ccc(S(=O)(=O)N2CCN=C2SCc2ccc([N+](=O)[O-])cc2)cc1	active: 7.31 µM	–
Cc1ccccc1-c1cc(-c2ccccc2O)n[nH]1	active: 23.1 µM	–
O=C(O)[C@H](Cc1ccccc1)Nc1ccc([N+](=O)[O-])cn1	inactive	–
Cc1ccc(-n2ncc3c(N4CCN(c5ccccc5)CC4)ncnc32)c(C)c1	active: 4.61 µM	–
COc1ccccc1CC(=O)O/N=C(\N)c1cccc([N+](=O)[O-])c1	inconclusive: 16.4 µM [inhibitor, single point]	–
CCOc1ccc(CNc2nc3ccccc3n2CCN2CCOCC2)cc1	active: 20.6 µM	–
CCCCn1c(N)c(N(CC(C)C)C(=O)c2oc3c(Cl)cccc3c2C)c(=O)[nH]c1=O	–	inconclusive: -33.8% [inhibitor]
Cc1ccc(-c2nc(CN(C)Cc3ccc4nccnc4c3)c(C)o2)s1	inactive	–
O=C(CSc1nccn1C1CCCC1)Nc1cc(C(F)(F)F)ccc1Cl	inconclusive: 10.3 µM [inhibitor, partial curve]	–
Cc1ccc(-c2nn(CC(=O)NCc3ccccc3)c3c2cnc2ccc(F)cc23)cc1C	inactive	–
COc1cc2c3c(c1)C(C)=CC(C)(C)N3C(=O)C2=O	active: 0.82 µM	–
Cc1c(C(=O)Nc2nnc(C(F)(F)F)s2)oc2ccccc12	inconclusive: 29.1 µM [inhibitor, single point]	–
CC(CNc1ccc([N+](=O)[O-])c2cccnc12)Nc1c([N+](=O)[O-])cc(C(F)(F)F)cc1[N+](=O)[O-] (configuration not stated)	inconclusive: 25.9 µM [inhibitor, single point]	–
COc1ccc(NC(=O)COC(=O)/C=C/c2ccc(OC)c(S(=O)(=O)N3CCOCC3)c2)cc1	inconclusive: 29.1 µM [inhibitor, single point]	–
Cc1coc2cc3oc(=O)ccc3cc12	inactive	–
Cc1ncc2c(c1CNC(=O)c1ccc3c(c1)OCO3)CCN(C(=O)c1cc3ccccc3o1)C2	inconclusive: 23.1 µM [inhibitor, single point]	–
O=C(OCC(=O)N1CCOCC1)c1cnc(Cl)c(Cl)c1	inactive	–
COc1cc(C(=O)Nc2ccc3nc(N4CCN(C)CC4)cc(C)c3c2)cc(OC)c1OC	inconclusive: 29.1 µM [inhibitor, single point]	–

Compound	Potency	activity change, negative = growth inhibition
Cc1cc(=O)[nH]c(SCCOc2ccc(OC(C)C)cc2)n1	–	inconclusive: -31.2% [inhibitor]
CCOc1ccccc1NC(=O)C(=O)/C=C(\O)c1cc(OC)ccc1OC	active: 5.17 µM	–
Cc1c(NC(=O)C(C)(C)Oc2ccc(Cl)cc2)cccc1-c1nc2ccccc2o1	inconclusive: 29.1 µM [inhibitor, single point]	–
COc1ccc(-c2nnc(SCC(=O)NC(C)c3ccccc3)o2)cc1OC (configuration not stated)	inactive	–
CCOc1ccc(Cl)cc1-c1cc(C(=O)NCC2CCCCC2)[nH]n1	active: 6.51 µM	–
O=C(Nc1cccc(C(=O)NC2CC2)c1)c1ccc(F)c(S(=O)(=O)N2CCOCC2)c1	inconclusive: 29.1 µM [inhibitor, single point]	–
Cc1c(CCOC(=O)c2ccc([N+](=O)[O-])cc2)sc[n+]1CC(=O)c1ccccc1	inconclusive: 29.1 µM [inhibitor, single point]	–
CCOC(=O)c1[nH]c2ccc(OCC)cc2c1NC(=O)CN1CCN(c2ccccc2)CC1	inconclusive: 20.6 µM [inhibitor, single point]	–
CCOC(=O)N1CCN(c2c(N3CCN(c4cc(C)ccc4C)CC3)c(=O)c2=O)CC1	inconclusive: 25.9 µM [inhibitor, single point]	–
CC(C(c1cccs1)c1c(N)n(C)c(=O)n(C)c1=O)[N+](=O)[O-] (configuration not stated)	inconclusive: 20.6 µM [inhibitor, single point]	–
CCCCOCCCNC(=O)C[C@@H]1C[C@@]2(C(=O)OC)CC(C)(C)CC=C2N(Cc2ccco2)C1=O	active: 23.1 µM	–
COc1ccc(C(=O)Nc2ccc(C)cn2)cc1S(=O)(=O)N1CCCc2ccccc21	inconclusive: 20.6 µM [inhibitor, single point]	–
COc1ccc(CN(C)C(=O)c2cc(S(=O)(=O)N3CCCCCC3)ccc2OC)cc1OC	inconclusive: 23.1 µM [inhibitor, single point]	–
O=C(c1ccccc1)c1c[nH]c(C(=O)C(Cl)(Cl)Cl)c1	inconclusive: 13 µM [inhibitor, partial curve]	–
Cc1cc(NCCCCCCCNc2cc(C)nc3cc([N+](=O)[O-])ccc23)c2ccc([N+](=O)[O-])cc2n1	active: 1.3 µM	–
Cc1cc(Br)cn2c(Cc3cccc(F)c3)c(C3CCCCC3)nc12	inconclusive: 23.1 µM [inhibitor, single point]	–
Cc1c(C)n(Cc2ccc(F)cc2)c2ccc(C(=O)NCCN3CCOCC3)cc12	active: 16.4 µM	–
CS(=O)(=O)c1ccc(Cl)c(NC(=O)CSc2nncn2-c2ccccc2)c1	inconclusive: 18.4 µM [inhibitor, single point]	–
COc1ccccc1NC(=O)C1=C(C)Nc2nc(-c3ccc(N(C)C)cc3)nn2C1c1ccncc1 (configuration not stated)	inconclusive: 20.6 µM [inhibitor, single point]	–
O=C(CCn1c(=O)c2ccccc2n(CC(=O)NCCC2=CCCCC2)c1=O)NCc1ccco1	inconclusive: 25.9 µM [inhibitor, single point]	–
O=C(/C=C/c1ccccc1[N+](=O)[O-])NCCc1ccc(F)cc1	inconclusive: 9.2 µM [inhibitor, partial curve]	–

Reference: PubChem BioAssay AID686978 (National Center for Advancing Translational Sciences (NCATS), 2013)
